Some of the results follow.
What follows are compounds tested on S. aureus RN4220 (assay: growth inhibition call (relative growth <= 0.2)). Conditions: 50 µM.

Growth inhibition call, inactive:
CC(=O)OC1(C(C)=O)CCC2C3C=C(C)C4=CC(=O)CCC4(C)C3CCC21C (centres undefined), C[C@@H]1CCCCO[C@H](CN(C)Cc2ccc(C(=O)Nc3ccccc3N)cc2)[C@@H](C)CN([C@H](C)CO)C(=O)c2cc(NS(=O)(=O)c3ccc(Cl)cc3)ccc2O1, CC(C)NC(=O)Nc1ccc2c(c1)C(=O)N([C@@H](C)CO)C[C@H](C)[C@H](CN(C)C(=O)Nc1ccccc1)OCCCC[C@H](C)O2, Cc1ccc(NC(=O)[C@H]2CCCN(C(=O)c3c(C)cccc3F)[C@H]2c2ccc(NC3CCCC3)cc2)cc1C(F)(F)F, COCC(=O)N1C[C@@H](C)[C@H](OC)CN(C)C(=O)c2cc(NC(=O)Nc3ccccc3)ccc2OC[C@@H]1C, COc1ccc(S(=O)(=O)N(C)C[C@H]2Oc3ccc(NS(=O)(=O)c4c(C)noc4C)cc3C(=O)N([C@H](C)CO)C[C@H]2C)cc1, COCC#Cc1ccc([C@@H]2[C@@H](CO)N3C(=O)CN(C(=O)c4ccncc4)C[C@H]23)cc1, COc1ccc(S(=O)(=O)N(C)C[C@H]2Oc3ccc(N(C)C)cc3CC(=O)N([C@@H](C)CO)C[C@H]2C)cc1, Cc1noc(C)c1NC(=O)N(C)C[C@@H]1Oc2ccc(NC(=O)Nc3cccc4ccccc34)cc2CC(=O)N([C@@H](C)CO)C[C@H]1C, CC(C)CC(N)=O, C[C@@H]1CCCCO[C@H](CN(C)Cc2ccncc2)[C@@H](C)CN([C@@H](C)CO)C(=O)c2cc(NC(=O)Nc3ccccc3)ccc2O1, C[C@@H]1CN([C@H](C)CO)C(=O)c2ccccc2-c2ccccc2CO[C@@H]1CN(C)C(=O)Nc1ccc(-c2ccccc2)cc1, C[C@H]1CN([C@@H](C)CO)C(=O)Cc2cc(NC(=O)CCCCCC(=O)Nc3ccccc3N)ccc2O[C@@H]1CN(C)C(=O)Nc1ccc(F)cc1, Cc1[nH]c2ncnn2c(=O)c1NS(C)(=O)=O, C[C@@H]1CN([C@H](C)CO)C(=O)c2cc(NS(C)(=O)=O)ccc2O[C@@H]1CN(C)S(=O)(=O)c1cn(C)cn1, COc1cccc(-c2ccc3c(c2)O[C@H](CN(C)Cc2cncnc2)[C@H](C)CN([C@@H](C)CO)S3(=O)=O)c1, Nc1ncnc2[nH]c(=S)[nH]c12, C[C@H](CO)N1C[C@H](C)[C@H](CN(C)Cc2ccc(C(=O)Nc3ccccc3N)cc2)Oc2ccc(NC(=O)Cn3cnnn3)cc2C1=O, C[C@@H]1CN([C@@H](C)CO)C(=O)Cc2cc(NS(=O)(=O)c3cccs3)ccc2O[C@H]1CN(C)Cc1ccc(Oc2ccccc2)cc1, Cl.N=C(N)NCCCC(N)C(=O)O (centres undefined), CCCCC1=NC2(CCCC2)C(=O)N1Cc1ccc(-c2ccccc2S(=O)(=O)Nc2noc(C)c2C)c(COCC)c1, CN(C)CC(=O)N[C@@H]1CC[C@@H](CCNS(=O)(=O)c2ccccc2)O[C@H]1CO, C[C@@H]1CN([C@@H](C)CO)C(=O)c2cc(NC(=O)Nc3ccc4c(c3)OCO4)ccc2O[C@H]1CN(C)Cc1ccc(C(=O)Nc2ccccc2N)cc1, CC(C)NC(=O)Nc1ccc2c(c1)C(=O)N([C@H](C)CO)C[C@H](C)[C@H](CN(C)S(=O)(=O)c1cccs1)O2, C[C@@H]1CN([C@@H](C)CO)C(=O)Cc2cc(NC(=O)Nc3ccccc3)ccc2O[C@@H]1CN(C)S(=O)(=O)c1cn(C)cn1, CC(C)NC(=O)Nc1ccc2c(c1)C(=O)N([C@@H](C)CO)C[C@@H](C)[C@@H](CN(C)C(=O)Nc1ccccc1)OCCCC[C@@H](C)O2, C[C@@H]1CN([C@@H](C)CO)C(=O)c2cc(C#CCN(C)C)cnc2O[C@H]1CN(C)C(=O)c1cnccn1, O=C1NC(=S)NC12CCCCC2, O=C(N/N=C/[C@H](O)[C@H](O)[C@@H](O)[C@@H](O)CO)c1ccccc1O
